# Measurements: the supplement of paper PMC8728848
# Some of the results follow.
# Key:
# Test in all cases: glycan array binding signal (z-score within array); higher = stronger binding
# Details in all cases: glycan notation: IUPAC condensed, linker removed
# [1] = target: Gal(a1-3)Gal(b1-3)GlcNAc(b1-6)GalNAc
# How it was run: (§1)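 The binding signal is a Z-score computed within each array. Data were drawn from 3228 arrays in the Consortium for Functional Glycomics database, restricted to those with a known protein sequence. Scores were averaged over arrays of the same protein sequence at different concentrations or buffers, and over linkers, and negative values can be taken as non-binding.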
# [2] = target: Gal(a1-3)Gal(b1-3)[Fuc(a1-4)]GlcNAc(b1-2)Man(a1-3)[Gal(a1-3)Gal(b1-3)[Fuc(a1-4)]GlcNAc(b1-2)Man(a1-6)]Man(b1-4)GlcNAc(b1-4)GlcNAc
# How it was run: as §1
# [3] = target: Gal(a1-3)Gal(b1-4)Glc
# How it was run: as §1
# [4] = target: Gal(a1-3)Gal(b1-4)GlcNAc
# How it was run: as §1
# [5] = target: Gal(a1-3)Gal(b1-4)GlcNAc(b1-2)Man
# How it was run: as §1
# [6] = target: Gal(a1-3)Gal(b1-4)GlcNAc(b1-2)Man(a1-3)[Gal(a1-3)Gal(b1-4)GlcNAc(b1-2)Man(a1-6)]Man(b1-4)GlcNAc(b1-4)GlcNAc
# How it was run: as §1
# [7] = target: Gal(a1-3)Gal(b1-4)GlcNAc(b1-3)GalNAc
# How it was run: as §1
# [8] = target: Gal(a1-3)Gal(b1-4)GlcNAc(b1-6)GalNAc
# How it was run: as §1
# [9] = target: Gal(a1-3)Gal(b1-4)[Fuc(a1-3)]GlcNAc
# How it was run: as §1
# [10] = target: Gal(a1-3)Gal(b1-4)[Fuc(a1-3)]GlcNAc(b1-2)Man(a1-3)[Gal(a1-3)Gal(b1-4)[Fuc(a1-3)]GlcNAc(b1-2)Man(a1-6)]Man(b1-4)GlcNAc(b1-4)GlcNAc
# How it was run: as §1
# [11] = target: Gal(a1-3)GalNAc
# How it was run: as §1
# [12] = target: Gal(a1-3)[Gal(a1-4)]Gal(b1-4)GlcNAc
# How it was run: as §1
# [13] = target: Gal(a1-4)Gal(b1-3)GlcNAc(b1-2)Man(a1-3)[Gal(a1-4)Gal(b1-3)GlcNAc(b1-2)Man(a1-6)]Man(b1-4)GlcNAc(b1-4)GlcNAc
# How it was run: as §1
# [14] = target: Gal(a1-4)Gal(b1-4)Glc
# How it was run: as §1
# [15] = target: Gal(a1-4)Gal(b1-4)GlcNAc
# How it was run: as §1
# [16] = target: Gal(a1-4)Gal(b1-4)GlcNAc(b1-2)Man(a1-3)[Gal(a1-4)Gal(b1-4)GlcNAc(b1-2)Man(a1-6)]Man(b1-4)GlcNAc(b1-4)GlcNAc
# How it was run: as §1
# [17] = target: Gal(a1-4)Gal(b1-4)GlcNAc(b1-3)Gal(b1-4)Glc
# How it was run: as §1
# [18] = target: Gal(a1-4)GlcNAc
# How it was run: as §1
# [19] = target: Gal(a1-6)Glc
# How it was run: as §1
# [20] = target: Gal(b1-2)Gal
# How it was run: as §1
# [21] = target: Gal(b1-3)Gal
# How it was run: as §1
# [22] = target: Gal(b1-3)Gal(b1-4)GlcNAc
# How it was run: as §1
# [23] = target: Gal(b1-3)GalNAc
# How it was run: as §1
# [24] = target: Gal(b1-3)GalNAc(a1-3)[Fuc(a1-2)]Gal(b1-4)Glc
# How it was run: as §1
# [25] = target: Gal(b1-3)GalNAc(a1-3)[Fuc(a1-2)]Gal(b1-4)GlcNAc
# How it was run: as §1
# [26] = target: Gal(b1-3)GalNAc(b1-3)Gal
# How it was run: as §1
# [27] = target: Gal(b1-3)GalNAc(b1-3)Gal(a1-4)Gal(b1-4)Glc
# How it was run: as §1
# [28] = target: Gal(b1-3)GalNAc(b1-4)Gal(b1-4)Glc
# How it was run: as §1
# [29] = target: Gal(b1-3)GalNAc(b1-4)[Neu5Ac(a2-3)]Gal(b1-4)Glc
# How it was run: as §1
# [30] = target: Gal(b1-3)GlcNAc
# How it was run: as §1
# [31] = target: Gal(b1-3)GlcNAc(a1-3)Gal(b1-4)GlcNAc
# How it was run: as §1
# [32] = target: Gal(b1-3)GlcNAc(a1-6)Gal(b1-4)GlcNAc
# How it was run: as §1
# [33] = target: Gal(b1-3)GlcNAc(b1-2)Man
# How it was run: as §1
# [34] = target: Gal(b1-3)GlcNAc(b1-2)Man(a1-3)[Gal(b1-3)GlcNAc(b1-2)Man(a1-6)]Man(b1-4)GlcNAc(b1-4)GlcNAc
# How it was run: as §1
# [35] = target: Gal(b1-3)GlcNAc(b1-2)Man(a1-3)[Gal(b1-3)GlcNAc(b1-2)Man(a1-6)]Man(b1-4)GlcNAc(b1-4)[Fuc(a1-6)]GlcNAc
# How it was run: as §1
# [36] = target: Gal(b1-3)GlcNAc(b1-2)Man(a1-3)[GlcNAc(b1-4)][Gal(b1-3)GlcNAc(b1-2)Man(a1-6)]Man(b1-4)GlcNAc(b1-4)GlcNAc
# How it was run: as §1
# [37] = target: Gal(b1-3)GlcNAc(b1-2)[Gal(b1-3)GlcNAc(b1-6)]Man(a1-6)[Gal(b1-3)GlcNAc(b1-2)Man(a1-3)]Man(b1-4)GlcNAc(b1-4)GlcNAc
# How it was run: as §1
binder,measurement,setting,value
"CSA (Cytisus scoparius), P29257 (protein) SEELSFSFTKFKTDQKNLILQRDALITPTGKLQLTTVENGKPAAYSLGRALYSTPIHIWDKSTGDEASFATFFSFVISDAPNPSTAATDGLAFFLAPADTQPQSAGGYLGLFEKDSSYNSSNQIVAVEFDTYYNSAWDPQTNPHIGIDVNTIKSKKVSSWGFKNGNVATVLITYQPSSKSLVASLVYPSGQTSDKTSYIISANVDLKATVPEWVRIGFSATTGQTDNYIETHDILSWSFKSKLPATKN",glycan array binding signal (z-score),[1],-0.218
same,glycan array binding signal (z-score),[2],-0.023
same,glycan array binding signal (z-score),[3],-0.157
same,glycan array binding signal (z-score),[4],-0.176
same,glycan array binding signal (z-score),[5],-0.171
same,glycan array binding signal (z-score),[6],-0.13
same,glycan array binding signal (z-score),[7],-0.149
same,glycan array binding signal (z-score),[8],-0.188
same,glycan array binding signal (z-score),[9],-0.173
same,glycan array binding signal (z-score),[10],-0.162
same,glycan array binding signal (z-score),[11],-0.161
same,glycan array binding signal (z-score),[12],-0.124
same,glycan array binding signal (z-score),[13],-0.166
same,glycan array binding signal (z-score),[14],-0.198
same,glycan array binding signal (z-score),[15],-0.176
same,glycan array binding signal (z-score),[16],-0.162
same,glycan array binding signal (z-score),[17],-0.093
same,glycan array binding signal (z-score),[18],0.057
same,glycan array binding signal (z-score),[19],-0.176
same,glycan array binding signal (z-score),[20],-0.193
same,glycan array binding signal (z-score),[21],-0.173
same,glycan array binding signal (z-score),[22],-0.15
same,glycan array binding signal (z-score),[23],-0.159
same,glycan array binding signal (z-score),[24],-0.181
same,glycan array binding signal (z-score),[25],-0.251
same,glycan array binding signal (z-score),[26],-0.169
same,glycan array binding signal (z-score),[27],0.019
same,glycan array binding signal (z-score),[28],-0.194
same,glycan array binding signal (z-score),[29],-0.062
same,glycan array binding signal (z-score),[30],-0.128
same,glycan array binding signal (z-score),[31],-0.227
same,glycan array binding signal (z-score),[32],-0.212
same,glycan array binding signal (z-score),[33],-0.197
same,glycan array binding signal (z-score),[34],-0.02
same,glycan array binding signal (z-score),[35],-0.106
same,glycan array binding signal (z-score),[36],-0.26
same,glycan array binding signal (z-score),[37],-0.212
